Patent US20250101135A1 (Hoffmann-La Roche, published 2025)

Key:
[1] = target: T1, human fibroblast activation protein (FAP) on cells (human, UniProt Q12884 1-760); assay: flow cytometry on FAP+ MV-3 cells
T1 construct: also called human FAP; huFAP

[2] = target: T2, human 4-1BB (CD137) on cells (human, UniProt Q07011 24-255); assay: flow cytometry on activated human PBMC, 4-1BB+ CD3+CD4+ T cells
T2 construct: whole, on cells; also called 4-1BB+CD8+; 4-1BB+CD4+

[3] = target: T2, human 4-1BB (CD137) on cells; assay: flow cytometry on activated human PBMC, 4-1BB+ CD3+CD8+ T cells

| Binder | EC50 [1] [nM] | EC50 [2] [nM] | EC50 [3] [nM] |
| --- | --- | --- | --- |
| bivalent FAP(28H1)-targeted human 4-1BB ligand (71-254) trimer-containing Fc (kih) fusion molecule Construct 1.8 (Fc fusion, 4-1BB ligands fused to an anti-FAP CrossFab with charged residues on the knob chain) chain 1: [no letters for about 200 residues]GGGGSGGGGSREGPELSPDDPAGLLDLRQGMFAQLVAQNVLLIDGPLSWYSDPGLAGVSLTGGLSYKEDTKELVVAKAGVYYVFFQLELRRVVAGEGSGSVSLALHLQPLRSAAGAAALALTVDLPPASSEARNSAFGFQGRLLHLSAGQRLGVHLHTEARARHAWQLTQGATVLGLFRVTPEIPAGLPSPRSEGGGGSGGGGSEVQLLESGGGLVQPGGSLRLSCAASGFTFSSHAMSWVRQAPGKGLEWVSAIWASGEQYYADSVKGRFTISRDNSKNTLYLQMNSLRAEDTAVYYCAKGWLGNFDYWGQGTLVTVSSASVAAPSVFIFPPSDRKLKSGTASVVCLLNNFYPREAKVQWKVDNALQSGNSQESVTEQDSKDSTYSLSSTLTLSKADYEKHKVYACEVTHQGLSSPVTKSFNRGE[no letters for human IgG1 Fc with changes] chain 2: [no letters for about 200 residues]GGGGSGGGGSEIVLTQSPGTLSLSPGERATLSCRASQSVSRSYLAWYQQKPGQAPRLLIIGASTRATGIPDRFSGSGSGTDFTLTISRLEPEDFAVYYCQQGQVIPPTFGQGTKVEIKSSASTKGPSVFPLAPSSKSTSGGTAALGCLVEDYFPEPVTVSWNSGALTSGVHTFPAVLQSSGLYSLSSVVTVPSSSLGTQTYICNVNHKPSNTKVDEKVEPKSC heavy: EVQLLESGGGLVQPGGSLRLSCAASGFTFSSHAMSWVRQAPGKGLEWVSAIWASGEQYYADSVKGRFTISRDNSKNTLYLQMNSLRAEDTAVYYCAKGWLGNFDYWGQGTLVTVSSASTKGPSVFPLAPSSKSTSGGTAALGCLVKDYFPEPVTVSWNSGALTSGVHTFPAVLQSSGLYSLSSVVTVPSSSLGTQTYICNVNHKPSNTKVDKKVEPKSCDKTHTCPPCPAPEAAGGPSVFLFPPKPKDTLMISRTPEVTCVVVDVSHEDPEVKFNWYVDGVEVHNAKTKPREEQYNSTYRVVSVLTVLHQDWLNGKEYKCKVSNKALGAPIEKTISKAKGQPREPQVCTLPPSRDELTKNQVSLSCAVKGFYPSDIAVEWESNGQPENNYKTTPPVLDSDGSFFLVSKLTVDKSRWQQGNVFSCSVMHEALHNHYTQKSLSLSPGK light: EIVLTQSPGTLSLSPGERATLSCRASQSVSRSYLAWYQQKPGQAPRLLIIGASTRATGIPDRFSGSGSGTDFTLTISRLEPEDFAVYYCQQGQVIPPTFGQGTKVEIKRTVAAPSVFIFPPSDEQLKSGTASVVCLLNNFYPREAKVQWKVDNALQSGNSQESVTEQDSKDSTYSLSSTLTLSKADYEKHKVYACEVTHQGLSSPVTKSFNRGEC | 2.79 | 2.77 | 0.14 |
| monovalent FAP(28H1)-targeted human 4-1BB ligand (80-254) trimer-containing Fc (kih) fusion molecule Construct 1.10 (Fc fusion, 4-1BBL ectodomain aa 80-254, charged residues on ligand chains; also called Construct 10) chain 1: [no letters for about 200 residues]GGGGSGGGGSDPAGLLDLRQGMFAQLVAQNVLLIDGPLSWYSDPGLAGVSLTGGLSYKEDTKELVVAKAGVYYVFFQLELRRVVAGEGSGSVSLALHLQPLRSAAGAAALALTVDLPPASSEARNSAFGFQGRLLHLSAGQRLGVHLHTEARARHAWQLTQGATVLGLFRVTPEIPAGLPSPRSEGGGGSGGGGSASTKGPSVFPLAPSSKSTSGGTAALGCLVEDYFPEPVTVSWNSGALTSGVHTFPAVLQSSGLYSLSSVVTVPSSSLGTQTYICNVNHKPSNTKVDEKV[no letters for human IgG1 Fc with changes] chain 2: [no letters for about 200 residues][no letters for about 120 residues] heavy: EVQLLESGGGLVQPGGSLRLSCAASGFTFSSHAMSWVRQAPGKGLEWVSAIWASGEQYYADSVKGRFTISRDNSKNTLYLQMNSLRAEDTAVYYCAKGWLGNFDYWGQGTLVTVSSASTKGPSVFPLAPSSKSTSGGTAALGCLVKDYFPEPVTVSWNSGALTSGVHTFPAVLQSSGLYSLSSVVTVPSSSLGTQTYICNVNHKPSNTKVDKKVEPKSCDKTHTCPPCPAPEAAGGPSVFLFPPKPKDTLMISRTPEVTCVVVDVSHEDPEVKFNWYVDGVEVHNAKTKPREEQYNSTYRVVSVLTVLHQDWLNGKEYKCKVSNKALGAPIEKTISKAKGQPREPQVCTLPPSRDELTKNQVSLSCAVKGFYPSDIAVEWESNGQPENNYKTTPPVLDSDGSFFLVSKLTVDKSRWQQGNVFSCSVMHEALHNHYTQKSLSLSPGK light: EIVLTQSPGTLSLSPGERATLSCRASQSVSRSYLAWYQQKPGQAPRLLIIGASTRATGIPDRFSGSGSGTDFTLTISRLEPEDFAVYYCQQGQVIPPTFGQGTKVEIKRTVAAPSVFIFPPSDEQLKSGTASVVCLLNNFYPREAKVQWKVDNALQSGNSQESVTEQDSKDSTYSLSSTLTLSKADYEKHKVYACEVTHQGLSSPVTKSFNRGEC | 4.31 | 0.3 | 0.12 |

Further binders by falling EC50 [1], results first:

| EC50 [1] [nM] | EC50 [2] [nM] | EC50 [3] [nM] | Binder |
| --- | --- | --- | --- |
| 8.16 | 0.95 | 0.19 | monovalent FAP(28H1)-targeted human 4-1BB ligand (71-254) trimer-containing Fc (kih) fusion molecule Construct 1.6 (Fc fusion, monomeric 4-1BBL fused to CL* via (G4S)1 linker) chain 1: [no letters for about 200 residues]GGGGSGGGGSREGPELSPDDPAGLLDLRQGMFAQLVAQNVLLIDGPLSWYSDPGLAGVSLTGGLSYKEDTKELVVAKAGVYYVFFQLELRRVVAGEGSGSVSLALHLQPLRSAAGAAALALTVDLPPASSEARNSAFGFQGRLLHLSAGQRLGVHLHTEARARHAWQLTQGATVLGLFRVTPEIPAGLPSPRSEGGGGSGGGGSASTKGPSVFPLAPSSKSTSGGTAALGCLVEDYFPEPVTVSWNSGALTSGVHTFPAVLQSSGLYSLSSVVTVPSSSLGTQTYICNVNHKPSNTKVDEKV[no letters for human IgG1 Fc with changes] chain 2: [no letters for about 200 residues][no letters for about 120 residues] heavy: EVQLLESGGGLVQPGGSLRLSCAASGFTFSSHAMSWVRQAPGKGLEWVSAIWASGEQYYADSVKGRFTISRDNSKNTLYLQMNSLRAEDTAVYYCAKGWLGNFDYWGQGTLVTVSSASTKGPSVFPLAPSSKSTSGGTAALGCLVKDYFPEPVTVSWNSGALTSGVHTFPAVLQSSGLYSLSSVVTVPSSSLGTQTYICNVNHKPSNTKVDKKVEPKSCDKTHTCPPCPAPEAAGGPSVFLFPPKPKDTLMISRTPEVTCVVVDVSHEDPEVKFNWYVDGVEVHNAKTKPREEQYNSTYRVVSVLTVLHQDWLNGKEYKCKVSNKALGAPIEKTISKAKGQPREPQVCTLPPSRDELTKNQVSLSCAVKGFYPSDIAVEWESNGQPENNYKTTPPVLDSDGSFFLVSKLTVDKSRWQQGNVFSCSVMHEALHNHYTQKSLSLSPGK light: EIVLTQSPGTLSLSPGERATLSCRASQSVSRSYLAWYQQKPGQAPRLLIIGASTRATGIPDRFSGSGSGTDFTLTISRLEPEDFAVYYCQQGQVIPPTFGQGTKVEIKRTVAAPSVFIFPPSDEQLKSGTASVVCLLNNFYPREAKVQWKVDNALQSGNSQESVTEQDSKDSTYSLSSTLTLSKADYEKHKVYACEVTHQGLSSPVTKSFNRGEC |
| 5.13 | 0.34 | 0.19 | monovalent FAP(28H1)-targeted human 4-1BB ligand (71-254) trimer-containing Fc (kih) fusion molecule Construct 1.4 (Fc fusion, text: monomeric 4-1BBL fused to CH1-knob chain, dimeric 4-1BBL on CL*; copies: 1 + 1 + 1 + 1) chain 1: [no letters for about 200 residues][no letters for about 100 residues][no letters for human IgG1 Fc with changes] chain 2: [no letters for about 200 residues]GGGGSGGGGSREGPELSPDDPAGLLDLRQGMFAQLVAQNVLLIDGPLSWYSDPGLAGVSLTGGLSYKEDTKELVVAKAGVYYVFFQLELRRVVAGEGSGSVSLALHLQPLRSAAGAAALALTVDLPPASSEARNSAFGFQGRLLHLSAGQRLGVHLHTEARARHAWQLTQGATVLGLFRVTPEIPAGLPSPRSEGGGGSGGGGSRTVAAPSVFIFPPSDRKLKSGTASVVCLLNNFYPREAKVQWKVDNALQSGNSQESVTEQDSKDSTYSLSSTLTLSKADYEKHKVYACEVTHQGLSSPVTKSFNRGEC heavy: EVQLLESGGGLVQPGGSLRLSCAASGFTFSSHAMSWVRQAPGKGLEWVSAIWASGEQYYADSVKGRFTISRDNSKNTLYLQMNSLRAEDTAVYYCAKGWLGNFDYWGQGTLVTVSSASTKGPSVFPLAPSSKSTSGGTAALGCLVKDYFPEPVTVSWNSGALTSGVHTFPAVLQSSGLYSLSSVVTVPSSSLGTQTYICNVNHKPSNTKVDKKVEPKSCDKTHTCPPCPAPEAAGGPSVFLFPPKPKDTLMISRTPEVTCVVVDVSHEDPEVKFNWYVDGVEVHNAKTKPREEQYNSTYRVVSVLTVLHQDWLNGKEYKCKVSNKALGAPIEKTISKAKGQPREPQVCTLPPSRDELTKNQVSLSCAVKGFYPSDIAVEWESNGQPENNYKTTPPVLDSDGSFFLVSKLTVDKSRWQQGNVFSCSVMHEALHNHYTQKSLSLSPGK light: EIVLTQSPGTLSLSPGERATLSCRASQSVSRSYLAWYQQKPGQAPRLLIIGASTRATGIPDRFSGSGSGTDFTLTISRLEPEDFAVYYCQQGQVIPPTFGQGTKVEIKRTVAAPSVFIFPPSDEQLKSGTASVVCLLNNFYPREAKVQWKVDNALQSGNSQESVTEQDSKDSTYSLSSTLTLSKADYEKHKVYACEVTHQGLSSPVTKSFNRGEC |
